Structures are written as SMILES. In all, about 48,000 compounds went through this assay and about 550 (1.1%) were called active. Not shown: some 4% with an inconclusive outcome. No stated cut-off is given here; in the data, active means potency below about 15 µM; inconclusive means mostly about 16 µM to 33 µM; inactive means weaker than that. The list shows a part of the results.
Potency means the concentration at half of the fitted maximal effect.

UniProt P04062, sequence (P04062 whole entry, looked up): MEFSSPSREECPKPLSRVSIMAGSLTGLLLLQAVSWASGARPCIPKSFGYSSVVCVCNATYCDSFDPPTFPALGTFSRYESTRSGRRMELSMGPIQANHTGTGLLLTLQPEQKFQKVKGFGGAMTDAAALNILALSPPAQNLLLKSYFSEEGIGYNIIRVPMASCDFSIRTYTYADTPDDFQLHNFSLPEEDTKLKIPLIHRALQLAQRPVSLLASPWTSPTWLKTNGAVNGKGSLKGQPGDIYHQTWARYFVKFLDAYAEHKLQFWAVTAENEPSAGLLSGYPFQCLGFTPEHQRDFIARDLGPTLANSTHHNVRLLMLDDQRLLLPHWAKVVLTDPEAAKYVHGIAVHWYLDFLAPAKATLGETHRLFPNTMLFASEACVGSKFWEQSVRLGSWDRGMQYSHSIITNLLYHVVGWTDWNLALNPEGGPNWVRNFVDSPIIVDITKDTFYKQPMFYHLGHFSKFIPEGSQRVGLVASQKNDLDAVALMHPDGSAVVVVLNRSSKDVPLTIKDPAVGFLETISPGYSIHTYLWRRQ

This experiment has as its target Lysosomal acid glucosylceramidase (Homo sapiens) (UniProt P04062). Briefly: Glucocerebrosidase.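 Further: the screen sought inhibitors.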 To be noted: purified enzyme, resorufin glucoside fluorescence (screen aimed at inhibitors), 20 min. In a few lines:
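Wild-type enzyme at 0.2 nM final in 50mM citric acid/KH2PO4, 10mM sodium taurocholate, 0.01% tween-20, pH 5.9, with resorufin beta-D-glucopyranoside at 30 uM final. Compounds titrated, 20 min at RT, red fluorescence read; AC50 from titration.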
Regarding `CCOC(=O)c1c(N)sc(C(=O)N2CCCC2)c1C`, the Potency is inactive: > 76.9 µM.

Turning to `NC(=O)C1(N2CCCCC2)CCN(Cc2ccccc2Cl)CC1`, the Potency is inactive: > 76.9 µM.

Consider `CCN(CC)CCn1c(NCc2cccc(OC)c2)nc2ccccc21`, for which the Potency is inactive: > 76.9 µM.

For `CC1CCN(C(=S)c2ccccc2O)CC1`, the Potency is inactive: > 76.9 µM.

Consider `CCc1ccc(Nc2oc(C)cc(=O)c2C(C)=O)cc1`, for which the Potency is inactive: > 76.9 µM.

As to `COc1ccccc1NC(=O)N1CCCC(C(=O)Nc2cccc(C)c2C)C1` (configuration not stated), the Potency is inactive: > 76.9 µM.

Turning to `CCn1c(COc2ccccc2C)nnc1SCC(=O)CC(=O)Nc1ccccc1OC`, the Potency is inactive: > 76.9 µM.

For `O=C(Cn1nnc2c(cnn2-c2ccc(F)cc2)c1=O)c1ccccc1F`, the Potency is inactive: > 76.9 µM.

On to `CCC(C)Cn1c(C)nc2ccccc21` (configuration not stated), for which the Potency is inactive: > 76.9 µM.

Turning to `CN(C)c1ccc(C(=O)c2ccccc2C(=O)O)c(O)c1`, the Potency is inactive: > 76.9 µM.

On to `COc1ccccc1C(=O)N1CCN=C1c1ccccc1`, for which the Potency was inactive: > 76.9 µM.

As for `CSCCC(NC(N)=O)C(=O)N(C)CC(=O)Nc1ccc(C)cc1` (configuration not stated), the Potency was inactive: > 76.9 µM.

Take `Cc1cnc(NC(=O)CSc2nnc(-c3ccc(Cl)cc3Cl)n2N)s1`: the Potency was inactive: > 76.9 µM.

As to `O=C(c1noc2c1CCCCC2)N1CCN(C(c2ccccc2)c2ccccc2)CC1`, the Potency is inactive: > 15.4 µM.

Take `O=C(c1csc2c1CCCCC2)N1CCN(c2ncccn2)CC1`: the Potency is inactive: > 76.9 µM.

`COc1ccccc1N1CCN(C(=O)c2ccc(S(=O)(=O)N3CCCCCC3)cc2)CC1`: the Potency is inactive: > 76.9 µM.

With `CCOC(=O)C1=C(Nc2ccccc2)OCC1=O`, the Potency was inactive: > 76.9 µM.

Consider `NS(=O)(=O)c1ccc(NC(=O)c2ccccc2C(=O)N2CCCCC2)cc1`, for which the Potency was inactive: > 76.9 µM.

Consider `CCOC(=O)N1CCN(C(=O)C2c3cc(OC)c(OC)cc3C(=O)N3CCc4ccccc4C23)CC1` (configuration not stated), for which the Potency is inactive: > 76.9 µM.

For `O=C1NC2=C(C(=O)CCC2)C(c2ccc3ncccc3c2)N1` (configuration not stated), the Potency was inactive: > 76.9 µM.

Consider `O=C(Nc1nncs1)Oc1ccccc1`, for which the Potency was inactive: > 76.9 µM.

Turning to `O=C1CCCN1c1ccc(S(=O)(=O)N2CCC(c3ccccc3)CC2)cc1`, the Potency is inactive: > 76.9 µM.

In the case of `COc1ccc(-c2cc(C(F)(F)F)nc(SCCC(=O)N3CCOCC3)n2)cc1`, the Potency was inactive: > 76.9 µM.

Regarding `O=C(Cc1ccc(-n2cccc2)cc1)N1CCc2ccccc21`, the Potency is inactive: > 76.9 µM.

Turning to `CC(C)(C)OC(=O)N1CCC[C@H]1c1nnc(SCc2ccc(Cl)cc2Cl)o1`, the Potency is inactive: > 76.9 µM.

As for `CCCOc1cccc(C(=O)Nc2cc(NC(=O)c3ccco3)ccc2OC)c1`, the Potency is inactive: > 76.9 µM.

On to `CCSc1cnc(-c2ccccc2)n1CC`, for which the Potency is inactive: > 76.9 µM.

Take `COc1ccc(CCNC(=O)NC(C(F)(F)F)C(F)(F)F)cc1OC`: the Potency was inactive: > 76.9 µM.

`COc1cccc(CN2C(=O)CCC2(C)C(=O)NC2CCCCCC2)c1` (configuration not stated): the Potency was inactive: > 76.9 µM.

Consider `CC(NC(=O)CSc1nc2ccccc2c(=O)n1CCCO)c1ccccc1` (configuration not stated), for which the Potency entry was “inactive”.

Turning to `COc1ccc(Cl)cc1C(=O)Nn1cnc2ccccc2c1=O`, the Potency is inactive: > 76.9 µM.

With `C=CCn1c(CC#N)nnc1N1CCOCC1`, the Potency is inactive: > 76.9 µM.

For the compound `COc1ccc(CCNS(=O)(=O)c2ccc3c(c2)CC(C)N3C(C)=O)cc1OC` (configuration not stated), the Potency is inactive: > 76.9 µM.

For the compound `Cc1cc(Oc2ccc(=O)n(C)n2)nc(Oc2ccc(=O)[nH]n2)n1`, the Potency was inactive: > 76.9 µM.

Consider `COC(=O)C(C)Sc1nc2c(c(=O)n1-c1ccccc1)SCC2` (configuration not stated), for which the Potency is inactive: > 76.9 µM.

`CCN(CC)S(=O)(=O)c1cc(Br)c(C)cc1OC`: the Potency was inactive: > 76.9 µM.

Consider `CCN1CCn2c1nc(N1CCOCC1)nc2=O`, for which the Potency was inactive: > 76.9 µM.

With `Cc1nc(N2CCC(C)CC2)c2oc3ccccc3c2n1`, the Potency is inactive: > 76.9 µM.

Consider `CCOC(=O)c1cnc(-n2nc(C)cc2C)nc1NC1CCCCC1`, for which the Potency is inactive: > 76.9 µM.

In the case of `Fc1cc(F)c2nc(N3CCCCC3)sc2c1`, the Potency is inactive: > 76.9 µM.

Regarding `CSc1cccc(NC(=O)CN(C)S(=O)(=O)c2ccccc2)c1`, the Potency was inactive: > 76.9 µM.

For the compound `CCn1cc(C(=O)Nc2cccc(NC(C)=O)c2)c2cc(OC)c(OC)cc2c1=O`, the Potency is inactive: > 76.9 µM.

`Cc1nnc(NC(=O)CSc2nnc3scc(-c4ccc(C)c(C)c4)n23)s1`: the Potency was inactive: > 76.9 µM.

For `O=C(O)C1[C@H]2C(=O)N(C3CCCC3)C[C@]23C=C[C@H]1O3` (some centres not stated), the Potency is inactive: > 76.9 µM.

On to `O=S(=O)(c1cccs1)N1CCN(Cc2nc3ccccc3s2)CC1`, for which the Potency entry is “inactive”.

As for `COc1cccc(OCCn2ccnc2)c1`, the Potency was inactive: > 76.9 µM.

As for `O=C(c1noc2c1CCCC2)N1CCOCC1`, the Potency was inactive: > 76.9 µM.

Regarding `Cc1cc(C)c2c(n1)sc1c(N3CCN(CCO)CC3)ncnc12`, the Potency was inactive: > 76.9 µM.

With `O=C(NCCCN1CCN(c2ccc(F)cc2)CC1)c1cccc(N2CCCC2=O)c1`, the Potency was inactive: > 76.9 µM.

On to `CCOC(=O)N1CCN(CC(O)c2ccc3c(c2)CCN3)CC1` (configuration not stated), for which the Potency was inactive: > 76.9 µM.

`COC(=O)c1[nH]c2cc(OC)c(OC)cc2c1NC(=O)c1cccc(OC)c1`: the Potency was inactive: > 76.9 µM.

With `CCOC(=O)c1cc(-c2cc3ccccc3o2)n[nH]1`, the Potency was inactive: > 76.9 µM.

For `O=C(CN(Cc1ccco1)C(=O)c1cc(=O)[nH]c2ccccc12)Nc1ccccc1Br`, the Potency is inactive: > 76.9 µM.

As for `Cc1ccc2[nH]c(=O)c(CN(CCCO)S(=O)(=O)c3cccc4nsnc34)cc2c1`, the Potency was inactive: > 76.9 µM.

Consider `COC(=O)c1ccc(CN(c2ccc(C)cc2)S(=O)(=O)c2ccc3c(c2)OCCO3)o1`, for which the Potency was inactive: > 76.9 µM.

As to `O=C(NCc1cccnc1)c1cccc(C(F)(F)F)c1`, the Potency was inactive: > 76.9 µM.

In the case of `O=c1[nH]c(=O)n(Cc2ccco2)c2c1C(C(F)(F)F)(C(F)(F)F)N=C(C1CCCCC1)N2`, the Potency is inactive: > 76.9 µM.

On to `COc1ccc2nc(NC3=NCN(CC4CCCO4)CN3)nc(C)c2c1` (configuration not stated), for which the Potency was inactive: > 76.9 µM.

For `Cc1cccc(N2C(=O)CC(Sc3nc(C)c4c(n3)CCCC4)C2=O)c1` (configuration not stated), the Potency was inactive: > 76.9 µM.

For `CCOC(=O)C(NS(=O)(=O)c1ccc(Br)cc1)C(C)C` (configuration not stated), the Potency is inactive: > 76.9 µM.

Take `COc1ccc(OC)c(NC(=O)C2CCN(c3nc(C)cc(C)n3)CC2)c1`: the Potency is inactive: > 76.9 µM.

Consider `COc1cc2cc3c(N)c(C(=O)NCc4ccco4)sc3nc2cc1OC`, for which the Potency is inactive: > 76.9 µM.

As for `CCCCNC(=O)OCCNC(=O)Oc1cccc(C)c1`, the Potency is inactive: > 76.9 µM.

For the compound `O=C(Nc1ccccc1)NC1(C(=O)N2CCN(C(=O)c3ccco3)CC2)CCCCC1`, the Potency is inactive: > 76.9 µM.

As to `COCC(=O)/C=C1\Sc2ccccc2N1C`, the Potency is inactive: > 76.9 µM.

Regarding `Cc1nc2ncnn2c(N2CCN(c3cccc(C(F)(F)F)c3)CC2)c1C`, the Potency is inactive: > 76.9 µM.

Take `O=C(CCn1nnc2ccccc21)Nc1nnc(Cc2ccc(F)cc2)s1`: the Potency is inactive: > 76.9 µM.

Take `c1ccc(-n2cnnc2SCc2cn3ccccc3n2)cc1`: the Potency is inactive: > 76.9 µM.

Turning to `CC(=O)c1cccc(NC(=O)N2CCCC2C(=O)Nc2cccc(C)c2C)c1` (configuration not stated), the Potency is inactive: > 76.9 µM.

As to `COc1ccc(OC)c(NS(=O)(=O)c2ccc(Cl)s2)c1`, the Potency was inactive: > 76.9 µM.

For the compound `CC(=Nc1ccc(O)cc1)c1sc2ccccc2c1O`, the Potency was inactive: > 76.9 µM.

Consider `COc1ccc(CN(CC2CCCO2)S(=O)(=O)c2ccc(C(=O)O)cc2)cc1OC` (configuration not stated), for which the Potency is inactive: > 76.9 µM.

`COc1ccc(OC)c(NC(=O)CSc2nc(N)c(-c3ccccc3)c(=O)[nH]2)c1`: the Potency was inactive: > 76.9 µM.

As for `CCOC(=O)N1CCN(C(=O)c2ccc(N3C(=O)CCC3=O)cc2)CC1`, the Potency is inactive: > 76.9 µM.

Take `Brc1cccc(-c2nnc(SCc3nc4ccccc4[nH]3)o2)c1`: the Potency was inactive: > 76.9 µM.

In the case of `CCC(=O)Nc1sc(C(=O)OC)c(C)c1C(=O)OC`, the Potency was inactive: > 76.9 µM.

Consider `COc1ccc(/C(O)=C2/C(=O)C(=O)N(CC3CCCO3)C2c2cccc(OC)c2)cc1` (configuration not stated), for which the Potency is inactive: > 76.9 µM.

Consider `N#Cc1ccc(OCC(=O)NCCc2ccc(S(N)(=O)=O)cc2)cc1`, for which the Potency is inactive: > 76.9 µM.

Regarding `O=S(=O)(NCCc1ccccc1F)c1cccc(S(=O)(=O)N2CCOCC2)c1`, the Potency result is “inactive”.

For the compound `COc1ccc(OCC(O)Cn2c(=N)n(CCN3CCOCC3)c3ccccc32)cc1` (configuration not stated), the Potency result is “inactive”.

Take `COc1ccc(-n2c(CSc3nc(C)cc(C)n3)nnc2SCC(=O)Nc2nccs2)cc1`: the Potency was inactive: > 76.9 µM.

Take `COc1ccccc1NC(=O)CCNC(=O)Cn1ccc2ccccc2c1=O`: the Potency is inactive: > 76.9 µM.

For `Cc1ccc(/C(O)=C2/C(=O)C(=O)N(CCN3CCOCC3)C2c2ccccn2)cc1` (configuration not stated), the Potency is inactive: > 76.9 µM.

On to `O=C(NCc1cccs1)C1CCCN1C(=O)Nc1ccccc1` (configuration not stated), for which the Potency is inactive: > 76.9 µM.

`COc1cc(S(=O)(=O)n2c(C)nc3ccccc32)ccc1F`: the Potency is inactive: > 76.9 µM.

With `COc1nc(OC)nc(N2CCC(NC(=O)C(Cc3ccc(C(C)C)cc3)NC(C)=O)CC2)n1` (configuration not stated), the Potency was inactive: > 76.9 µM.

For the compound `O=C(NC1CCCCC1)c1cccnc1C(=O)O`, the Potency was inactive: > 76.9 µM.

On to `NC(=O)C1CCN(C(=O)CN2CCCc3ccccc32)CC1`, for which the Potency is inactive: > 76.9 µM.

With `Cc1cc(C)n(C(=O)CCNC(=O)c2ccccc2Br)n1`, the Potency is inactive: > 76.9 µM.

As to `COCCCn1c(SCC(=O)NC(C)(C)C)nnc1-c1ccccc1`, the Potency was inactive: > 76.9 µM.

For `Cc1ccc(OCc2nnc(SCC(=O)NC3CCCCC3)n2C)cc1`, the Potency was inactive: > 76.9 µM.

Take `Cc1cc(OC(=O)N2CCOCC2)cc(C)c1Cl`: the Potency was inactive: > 76.9 µM.
